The inconclusive results got no clear call from the source; some entries with a clear call stand among them for comparison. No potency is given beside an inconclusive call; the fits are too rough. The source made the active and inactive calls. Unless noted, calls come from the whole dose curve; as a rule, active = well fitted cell-killing curve with a large enough effect in the repeat runs; inconclusive = weak or mixed curves, or effect the other way; inactive = no such curve, though single readings can be large or run the other way.
Target: Thyrotropin receptor (Homo sapiens) (UniProt P16473)
Experiment: qHTS assay to identify small molecule antagonists of the thyroid stimulating hormone receptor (TSHR) signaling pathway (AID 1259385; calls by dose curve; note: nearly all actives have a fitted effect of over 20% in size)
Conditions: TSHR-HEK293 cAMP HTRF, TSH-stimulated antagonist mode; activity change, negative = inhibition: at 92.4 µM (top of the series) unless noted
Method in brief: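 Antagonist mode: compound-treated TSHR-expressing HEK293 cells were stimulated with 1.5 ng/mL TSH (final) in presence of Ro20-1724 for 30 min at RT. HTRF cAMP detection after 1 h; each compound tested at 15 concentrations, triplicate.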
% is set by controls: 0 for no effect and ±100 for the full control effect; potency is the fitted concentration of half-maximal effect; tags give direction and shape of the fitted curve.

Sequence of UniProt P16473 (P16473 whole entry, looked up): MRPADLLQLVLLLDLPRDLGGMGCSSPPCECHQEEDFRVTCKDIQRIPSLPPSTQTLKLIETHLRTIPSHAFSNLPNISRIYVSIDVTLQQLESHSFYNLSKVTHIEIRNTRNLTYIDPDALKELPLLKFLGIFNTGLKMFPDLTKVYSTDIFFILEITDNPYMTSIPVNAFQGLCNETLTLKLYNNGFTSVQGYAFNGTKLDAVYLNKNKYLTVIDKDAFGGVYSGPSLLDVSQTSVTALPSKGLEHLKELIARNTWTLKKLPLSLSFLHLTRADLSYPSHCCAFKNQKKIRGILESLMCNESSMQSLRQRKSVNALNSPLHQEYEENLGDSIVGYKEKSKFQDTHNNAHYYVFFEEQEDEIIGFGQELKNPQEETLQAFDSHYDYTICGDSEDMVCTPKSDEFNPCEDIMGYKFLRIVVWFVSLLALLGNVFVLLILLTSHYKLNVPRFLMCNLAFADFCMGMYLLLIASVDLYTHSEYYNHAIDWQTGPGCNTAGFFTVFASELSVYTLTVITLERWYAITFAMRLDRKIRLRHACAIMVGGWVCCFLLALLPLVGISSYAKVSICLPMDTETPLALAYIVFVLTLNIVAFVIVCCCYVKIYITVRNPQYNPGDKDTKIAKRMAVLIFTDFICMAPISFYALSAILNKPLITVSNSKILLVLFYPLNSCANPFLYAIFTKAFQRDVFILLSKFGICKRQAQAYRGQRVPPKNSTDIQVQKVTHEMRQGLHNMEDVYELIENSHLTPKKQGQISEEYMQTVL

Structure (SMILES) | Potency | activity change, negative = inhibition
N#CCCCl | inactive | –
CCCCN(N=O)C(=N)N[N+](=O)[O-] | inconclusive [falling, single point] | –
NC(=O)CI | – | inconclusive: -11.2%
CCOC(=O)NC(C)(C)Cc1ccc(Cl)cc1 | inconclusive [falling, partial curve] | –
O=C1CCCO1 | inactive | –
ClP(Cl)(Cl)(Cl)Cl | inconclusive [falling, single point] | –
SCc1ccccc1 | – | inactive: -6.82%
O=C(Cl)OCCOCCOC(=O)Cl | – | inactive: 2.26%
BrCc1ccc(Br)cc1 | – | inactive: 0.0666%

Test system: not listed separately
Experiment: qHTS assay to identify small molecule agonists of the estrogen receptor alpha (ER-alpha) signaling pathway in the presence of an antagonist - cell viability counter screen (AID 1259386);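 note: cells exposed to compounds for 22 h at 37 °C before the viability read; nearly all actives have a fitted effect of over 30% in size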
Conditions: VM7Luc4E2 viability, CellTiter-Fluor fluorescence, 22 h; series mostly up to 92.4 µM; activity change, negative = cytotoxicity: at the top concentration
Method in brief: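 Using estrogen-depleted VM7Luc4E2 cells, the 15-concentration compound series was applied together with 10.0nM ICI-182,780 and incubated 22hr at 37C/5% CO2. Cell viability was then scored by CellTiter-Fluor.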

Structure (SMILES) | Potency | activity change, negative = cytotoxicity
O=[N+]([O-])/N=C1\NCCN1Cc1ccc(Cl)nc1 | inactive | –
CC(C)(C)C(=O)C(Oc1ccc(Cl)cc1)n1cncn1 (configuration not stated) | inconclusive [cytotoxic, single point] | –
CCC(Cl)[N+](=O)[O-] (configuration not stated) | – | inactive: 0.128%
CCCCCCn1cc[n+](C)c1 | inconclusive [cytotoxic, single point] | –
C#CC(C)(C)NC(=O)c1cc(Cl)cc(Cl)c1 | inactive | –
CCCCN(CCCC)C(=S)[S-].CCCCN(CCCC)C(=S)[S-].[Zn+2] | active: 24.3 µM | –
OC(O)C(Cl)(Cl)Cl | inactive | –
O=Cc1ccc2c(c1)OCO2 | – | inactive: 1.89%
C=C(C)C#N | inactive | –
CCCCOCC1CO1 (configuration not stated) | inconclusive [cytotoxic, single point] | –
ClCC1CO1 (configuration not stated) | – | inactive: -12%
Cc1ccccc1N | inactive | –
CN(N=O)c1ccccc1 | inactive | –

Source: PubChem BioAssay (Tox21)
